Source: the supplement of paper PMC3334620
The full ranking holds about 33,000 sequences; the median of “E-score (-0.5 to 0.5)” is about -0.041, and the highest 2% start at about 0.37. Some of the results follow.

What follows are sequences tested against T1, Ecm22 (UniProt Q05958) (assay: PBM E-score (8-mer binding enrichment) (E-score (-0.5 to 0.5)); higher = stronger / more preferred TF binding; most listed sequences are background and not binding sites). Details: protein concentration: 200 nM; construct: GST-full length.
T1 sequence: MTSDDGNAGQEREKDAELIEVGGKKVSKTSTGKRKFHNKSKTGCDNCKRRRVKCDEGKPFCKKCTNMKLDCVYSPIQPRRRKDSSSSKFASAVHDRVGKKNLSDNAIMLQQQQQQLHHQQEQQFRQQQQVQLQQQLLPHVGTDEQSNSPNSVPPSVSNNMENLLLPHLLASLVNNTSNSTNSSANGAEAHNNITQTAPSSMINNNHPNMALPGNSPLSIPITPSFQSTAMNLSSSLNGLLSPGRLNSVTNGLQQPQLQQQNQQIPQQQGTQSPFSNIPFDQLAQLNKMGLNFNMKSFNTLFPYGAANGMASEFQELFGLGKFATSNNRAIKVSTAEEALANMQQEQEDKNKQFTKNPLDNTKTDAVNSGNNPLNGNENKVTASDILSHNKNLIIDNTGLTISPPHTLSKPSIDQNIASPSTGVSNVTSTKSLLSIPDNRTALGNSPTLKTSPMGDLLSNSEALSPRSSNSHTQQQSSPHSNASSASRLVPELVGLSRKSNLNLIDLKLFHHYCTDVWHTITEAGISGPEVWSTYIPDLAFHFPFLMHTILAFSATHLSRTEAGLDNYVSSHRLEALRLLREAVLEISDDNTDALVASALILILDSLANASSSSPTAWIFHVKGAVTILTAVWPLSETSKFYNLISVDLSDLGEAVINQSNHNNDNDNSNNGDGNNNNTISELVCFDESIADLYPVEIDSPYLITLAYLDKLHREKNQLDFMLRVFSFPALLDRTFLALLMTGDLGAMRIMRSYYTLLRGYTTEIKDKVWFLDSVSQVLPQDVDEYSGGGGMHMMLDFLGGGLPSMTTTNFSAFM
Procedure, shortened: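 Bound GST-tagged yeast transcription factors, applied at about 100-200 nM to double-stranded universal all-10-mer Agilent arrays, were detected with fluorescent anti-GST. Scans were normalised with masliner. A modified Wilcoxon-Mann-Whitney statistic, the E-score, was assigned to each ungapped eight-base word pooled with its reverse complement by the Universal PBM Analysis Suite.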

Sequence	PBM E-score
TAGGCCCA	-0.296
CTCAAACA	0.0429
CGGCCGGA	-0.113
TCTAACCA	-0.0569
CCTACAGC	-0.318
AAACATTA	-0.0972
CCCACAGG	-0.125
CCGCTTAG	0.00496
TGAGGACA	0.0147
AAGCACGG	0.0886
AAGTCAAA	-0.0621
GCTCGCAC	0.292
CCCTTGTA	-0.0979
GTGATTTA	-0.0466
TAGGCACA	-0.249
CAGAGATC	-0.206
TCCGGGAA	-0.124
AATTTTTG	-0.201
CCCTCACG	-0.288
AATCGTGG	-0.165
GGGTTGAC	-0.206
AAAAGGAG	-0.0638
GCATGCCC	0.00907
ATCCAGTA	0.0422
AGACGACG	0.23

Sequence	PBM E-score
CAGAAATA	-0.07
AACGGCAC	0.22
CTCCGAAG	0.136
ATGCCCTC	-0.029
GAGCTCGA	0.237
CTACAGAA	0.0488
CCTTTGTC	0.0478
ATCATCGC	0.0962
GCGCCCGC	-0.173
GCGATCCC	-0.0537
TCAATTGA	0.173
GCAAGAAC	0.116
CCAGCGCG	0.0459
CATCGGTC	0.132
CATCTTCA	-0.258
CAGAGATG	-0.19
CCTGACTC	-0.0986
AGACCTTC	-0.0826
GCCCATCA	-0.0951
AACTGAAA	-0.0774
CCCAAGAC	-0.239
CTCTCGCA	0.0954
CTTGGGCC	-0.135
AAATATGG	-0.0875
ATCAAGGG	-0.149

Sequence	PBM E-score
GTATCAAC	-0.0727
CAGGATTA	-0.13
CGAGCACC	0.216
ACGACGAT	0.325
TACGCATA	0.303
TATCGAAA	0.145
CTTGTCGC	0.125
ACTGAGAT	-0.052
AACTAAAG	-0.0962
AGGGAACA	-0.166
AAGTTCAT	-0.0862
AGGGAGTA	-0.206
CACGTTGC	0.119
GGACCCCC	-0.251
GAGCGCGC	0.185
AGGTCGAC	-0.0604
AGGCGGCC	-0.182
AGACCACC	-0.179
ACTTGCAC	-0.123
AAACGTAT	0.319
GCGCAAAA	-0.0207
AAATGTGG	-0.0721
ACCGTAAA	0.326
ACTGGCAA	-0.2
ATGGGGCG	-0.148

Sequence	PBM E-score
TCTGGCCA	-0.217
ATCGACGC	0.0291
GCGATACC	-0.0421
CCTTAGCA	-0.287
AGAACTGA	0.113
GGCCAGAC	-0.284
GCGGTTGA	-0.0818
GGATTAAA	-0.061
ATTTAGTA	0.0461
GGCCAACC	-0.0544
ACACTCCT	-0.163
AATGATAA	0.0159
AATTCCAC	-0.0657
ACGATGCA	0.344
ATAGTAGA	-0.0235
ACTGTTGA	-0.238
AGTATCTG	-0.132
TATATGAA	0.162
GAGGTATA	0.151
ATGTTCAA	-0.175
CGTGGTTA	-0.028
CGAAAGCC	-0.0951
ACAATGCA	-0.0318
CAGGTTGG	-0.0277
CCGCACGG	-0.257

Sequence	PBM E-score
CCGCCTTA	-0.164
AAGTTCCT	-0.108
AGTACTAA	0.0573
AGTCCGTC	-0.217
AAGACACG	0.188
AGATTCCA	-0.11
CAACTCAC	-0.13
GCAGAATA	0.0132
ACGAGCCC	0.365
ATACCGAA	0.22
ATTCTATG	-0.0782
AGGATATG	-0.109
TGAACAAA	0.165
CAGTCTGG	-0.325
ATACGGGC	0.413
CTTTGCCC	-0.211
AGCGCGGA	-0.0298
ACGCACTA	0.103
ATCTATTA	-0.0343
AGACCCCC	-0.218
ATGTATGG	-0.0964
CCCCTGAA	0.033
CATCCAAG	-0.278
GCTAGTTA	-0.0992
AAGGGTAG	-0.154

Sequence	PBM E-score
CCTTCAAG	-0.257
AGCACGAT	0.116
GAAGGTTA	-0.016
ATAACTTC	0.00897
CCCTTGAG	-0.18
GCCACTGA	-0.0723
AAGGAGGA	0.0817
CCATAACG	0.00187
GAGCCTGA	-0.18
GGAAAATA	0.0993
AACGTCTA	0.0113
GACATACA	0.0198
ACTAACTG	-0.161
GTAGAGGA	-0.111
CATTTGTC	0.0578
GCCAGAGA	0.0314
CATGAGGG	-0.094
CATACTGA	-0.0759
ACCCTCGG	0.0481
GCTGTATA	0.0485
ACACTGGA	0.0175
AACGCCGT	0.128
AATCAGCG	0.0212
CCTATTGC	-0.0995
AAATACCT	-0.144

Sequence	PBM E-score
AAATTCTC	0.05
GCATGGGA	-0.216
GATCCCAA	-0.265
CGACCTGA	0.253
ATGGCAGG	-0.0293
GTCCGCAA	0.027
GGAGTCAC	-0.214
GCCTTTCA	-0.108
AGACAAGG	-0.178
ATGGGCGA	-0.0942
ACTATGAA	-0.0422
CGCAGCTC	0.0643
AAATACTC	-0.0418
GCGTCTAA	-0.204
AGGTCGCG	0.05
ACCTACCA	-0.21
CGAGAGGC	0.0476
CGCTAGAA	-0.129
ATGGCGGG	-0.122
CGGCAGCA	-0.14
TCGTGGCA	-0.0281
CGACTTCC	-0.0118
GCGCTTAA	0.0179
ACCTGCTA	0.0415
ACTTATCC	0.0349

Sequence	PBM E-score
AGTTGAGG	-0.245
GCCTGGAC	-0.216
AAGGTTTC	-0.159
AGAGAAGG	-0.261
ATTGAATC	-0.113
AGACTAAG	-0.00025
ATTTCACG	0.206
GAGCTTGA	-0.159
CGGAACCC	-0.0002
GATCCTGC	0.0357
AGAGTCCT	-0.264
TACTGCCA	-0.0409
CCCGAAGC	-0.0995
GACCCAGA	0.0321
CACTTATG	0.071
GCGCCAAC	-0.0839
ATTAAAAC	0.086
TCTTCTCA	-0.153
CGCGGGAG	-0.0511
ACCAGAGT	-0.0989
ACTACGAT	0.182
AGTGCGCA	-0.0824
CAGGAGCC	-0.208
ATGCGCCG	-0.0823
GTGGCACA	-0.195

Sequence	PBM E-score
AGGTTGGC	-0.186
AGTGTACC	-0.059
TAGCCCGA	-0.0144
CCGATGAA	0.0749
CTTTTTTC	-0.0133
GCCGGCGC	-0.064
CTGGTTCC	-0.207
AACAATAG	-0.0614
CTGATCAG	-0.132
CGTATCAA	0.386
GCACTTGA	-0.184
ATCACGAC	0.0295
AGATTCTC	-0.0302
ACACCTTA	-0.139
ATGCGCTC	-0.0605
TGATTCCA	-0.191
AATGCAGG	-0.0879
ATTGTCGA	-0.0961
ACATAAGA	0.0804
CACATGTC	-0.199
AACAGCAG	-0.0465
AGATGCAA	-0.206
AACAGACA	-0.04
CAATTCCG	-0.215
GACAGACC	0.00609

Sequence	PBM E-score
CAGGAGCA	-0.164
GCGGCCGA	-0.0115
CATCGTCC	0.0413
AAGACTGC	-0.243
ACACAGCA	-0.0144
TAAATAGA	0.0319
AGCGACTG	0.177
AGGGTTTG	-0.117
CACCGCGC	0.0943
AAGTTTAG	-0.138
ATCACACG	0.0831
ATTCTGAA	-0.00244
CGGTTTGA	-0.0256
CGGTTTGC	0.214
AAAGATTG	-0.286
ACTTAGGG	-0.0832
CTGAATCC	-0.173
GGGCGGCA	-0.0594
CCGAGCGG	0.202
AGGAATCG	0.15
AGCCTCAG	-0.0416
GTCATTTA	-0.185
CATGGTGC	-0.152
AAGATCCC	-0.0661
AGGCGATC	0.0299

Sequence	PBM E-score
ACCGCGAT	0.0844
ATTGGTGA	-0.215
CGTGGTGC	-0.171
GGATGAGA	-0.121
CCACATGC	-0.105
GAGTTCAA	-0.0165
ATTACACA	-0.022
AAATACGT	0.0932
CTCTGCGA	0.15
TATGTCGA	0.174
CTCGTTAC	0.371
CCGACCCC	-0.16
AAGGCTCC	-0.296
AACGAACG	0.437
CTTGTCTA	0.0126
CTATCACC	-0.124
AGACGCTC	-0.179
AGATCCCA	-0.166
CTTTACAA	-0.207
CTTCTTGA	-0.131
ACCAGAGA	-0.075
GGCGAATA	0.0385
GCACTAAA	0.152
ACTGGACG	-0.0864
CAGCTGGA	-0.0905

Sequence	PBM E-score
GTTAACGA	0.408
AGATTGTC	0.0657
GGAGTCAA	-0.195
CTATTTGA	-0.176
CCCACCCA	-0.242
GAAGATAC	0.0301
TAATGTCA	-0.252
AACTAGGA	-0.18
GCTAGGCC	-0.231
AACTATGG	-0.118
AGTATTAT	-0.0872
AGAACTTC	-0.143
CAAAAATG	-0.145
AAAGGTTG	-0.251
CCTGACGC	-0.409
AGGACAGG	-0.138
ACTAAGTA	-0.165
CCGGCCAC	-0.25
AAGGGCGC	-0.14
AGGTATGC	0.0443
CATCTACC	-0.0782
AACACGGA	-0.135
ATAGTGCG	0.165
CGGACTTA	-0.2
GACAGGTC	-0.165

Sequence	PBM E-score
GCAGGCGA	-0.147
TAAATAAA	0.133
CAGCGTTA	-0.0109
ATAGGCGA	0.0706
GGCTGACC	-0.114
AACAATCG	0.0979
CGGTCTAC	0.134
GATAACCA	0.0159
CGTTAGTA	0.141
CCTTAAGC	-0.144
ACTGGGGC	-0.276
CGACGAGC	0.162
TCGGAGAA	-0.0245
TCGAGCAA	0.01
AGGACATG	-0.0145
CCCCTAGC	-0.254
GGCACGCA	0.115
ACAGTAAC	0.00997
ACGCGGGG	0.0811
CACTGCTA	-0.0445
CGTCCGAG	0.148
AACTAGTG	-0.155
AGTCGGGG	-0.198
CAATCCTA	-0.134
AGACCTAG	-0.102

Sequence	PBM E-score
CGCCACAC	0.0866
ACCTCGTA	0.463
ATAAAACA	0.0904
CCATAGCA	-0.316
AACCCGGC	0.11
AGTCGGGA	0.141
GACTGCGC	-0.0149
TAGGGGCA	-0.203
CATACTCA	0.0364
GCTCTTCA	-0.119
CTTTAAAC	-0.0203
CGGATGAA	0.16
CAGCAGCA	-0.111
ATCATATG	-0.00924
AAGTCTGG	-0.159
AGTCTGCA	-0.179
GACTCGCA	0.151
GATAACGA	0.194
ATCCATCG	0.209
